This is one part of the list.
Tests used:
HSkMC = human skeletal muscle cells; assay: cytotoxicity call (relative viability < 0.9); conditions: 10 µM
HepG2 = assay: cytotoxicity call (relative viability < 0.9); conditions: 10 µM
S. aureus RN4220 = assay: growth inhibition call (relative growth <= 0.2); conditions: 50 µM

| Compound | cytotoxicity call (HSkMC) | cytotoxicity call (HepG2) | growth inhibition call (S. aureus RN4220) |
| --- | --- | --- | --- |
| O=C(CCCCCCC(=O)N/N=C/[C@@H](O)[C@H](O)[C@H](O)CO)NO | inactive | inactive | inactive |
| CC(C)NC(=O)N(C)C[C@@H]1Oc2ccc(NC(=O)c3ccncc3)cc2CC(=O)N([C@@H](C)CO)C[C@@H]1C | inactive | inactive | inactive |
| C[C@@H]1CCCCO[C@@H](CN(C)C(=O)Cc2ccccc2)[C@@H](C)CN([C@H](C)CO)C(=O)c2cc(NC(=O)Cc3ccccc3)ccc2O1 | inactive | inactive | inactive |
| Cc1noc(C)c1NC(=O)Nc1ccc2c(c1)C(=O)N([C@@H](C)CO)C[C@H](C)[C@@H](CN(C)C(=O)Nc1ccc(C(F)(F)F)cc1)O2 | inactive | inactive | inactive |
| C[C@@H]1CN([C@H](C)CO)C(=O)Cc2cc(NS(=O)(=O)c3ccc(Cl)cc3)ccc2O[C@H]1CN(C)Cc1ccc(C(=O)Nc2ccccc2N)cc1 | inactive | inactive | inactive |
| C[C@H]1CN([C@@H](C)CO)C(=O)Cc2cc(NC(=O)C3CC3)ccc2O[C@@H]1CN(C)S(=O)(=O)c1cn(C)cn1 | inactive | inactive | inactive |
| CN1C(=O)c2cc(NC(=O)c3cccs3)ccc2OC[C@@H]2O[C@@H](CC(=O)NCCN3CCCCC3)CC[C@H]21 | inactive | inactive | inactive |
| C[C@H]1CN([C@@H](C)CO)C(=O)c2cccc(NC(=O)NC3CCCCC3)c2O[C@H]1CN(C)Cc1ccc(Cl)c(Cl)c1 | inactive | inactive | inactive |
| Cc1ccc(Cc2nc(-c3ccc(Cl)cc3)cs2)cc1 | inactive | active | inactive |
| O=C1O[C@H](c2ccccc2)[C@H](c2ccccc2)N2[C@H]1[C@@H](C(=O)NC[C@H](O)c1ccccc1)[C@]1(C(=O)Nc3ccc(C#CC4(O)CCCCCC4)cc31)[C@H]2c1ccc(O)cc1 | inactive | inactive | inactive |

From the antibiotic and cytotoxicity screens of Wong et al. (2023)
